Data taken from PubChem BioAssay AID1745853 (National Center for Advancing Translational Sciences (NCATS), 2022).
This is one part of the list. The main result of the screen is listed elsewhere. These columns were measured beside it and carry no call.

Tests used:
Test in all cases: Primary Screen for Target Class Profiling of Small Molecule Inhibitors of Methyltransferases
[1] = target: Glycine N-methyltransferase (Homo sapiens) (UniProt Q14749); conditions: purified enzyme, MTase-Glo SAH luminescence; measured here: GNMT inhibition; at 40 µM; stronger effect = lower value
In short: (§1)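 Each enzyme was assayed with SAM and its substrate. SAH formation detected by MTase-Glo luminescence; single-point 40 uM screen[…].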

[2] = target: Guanidinoacetate N-methyltransferase (Homo sapiens) (UniProt Q14353); conditions: purified enzyme, MTase-Glo SAH luminescence; measured here: GAMT inhibition; at 40 µM; stronger effect = lower value
In short: as §1

[3] = target: Histamine N-methyltransferase (Homo sapiens) (UniProt P50135); conditions: purified enzyme, MTase-Glo SAH luminescence; measured here: HNMT inhibition; at 40 µM; stronger effect = lower value
In short: as §1

[4] = target: Nicotinamide N-methyltransferase (Homo sapiens) (UniProt P40261); conditions: purified enzyme, MTase-Glo SAH luminescence; measured here: NNMT inhibition; at 40 µM; stronger effect = lower value
In short: as §1

[5] = target: Phenylethanolamine N-methyltransferase (Homo sapiens) (UniProt P11086); conditions: purified enzyme, MTase-Glo SAH luminescence; measured here: PNMT inhibition; at 40 µM; stronger effect = lower value
In short: as §1
On the % scale 0 is the no-effect control and ±100 the full control effect.

| SMILES | activity change, negative = inhibition [1] | activity change, negative = inhibition [2] | activity change, negative = inhibition [3] | activity change, negative = inhibition [4] | activity change, negative = inhibition [5] |
| --- | --- | --- | --- | --- | --- |
| Cc1cccc2c1cnn2C(=O)CCC(=O)N1CCN(c2ccccn2)CC1 | -7.34% | 0% | 9.06% | 7.81% | 2.25% |
| O=c1cc(N2CCOCC2)oc2c(Nc3ccccn3)nccc12 | -4.83% | -1.68% | -4.65% | -7.46% | -11.9% |
| Cc1ccc(CN2C(=O)c3cc4sccc4n3CC2(C)C(=O)NC2CCC(C)CC2)cc1 (stereo not given) | -1.15% | 4.4% | -1.16% | -2.4% | -4.86% |
| Cc1cccc(CN2C(=O)c3ccccc3CC2(C)C(=O)NCc2ccccc2)c1 (stereo not given) | 4.04% | 1.83% | 6.05% | -7.49% | 0.816% |
| CC(C)CCN1C(=O)c2cc3occc3n2CC1(C)C(=O)NC1CCCCCC1 (stereo not given) | 4.06% | 0% | 7.89% | 4.34% | -0.385% |
| COc1ccccc1NC(=O)Cn1c(=O)c2ccccc2n2nnc(-c3ccccc3)c12 | 2.95% | 0% | 1.36% | -1.84% | -1.59% |
| CC(C)CNC(=O)c1ccc2c(=O)n(C(C)C)c3nn(Cc4ccccc4F)c(=O)n3c2c1 | -0.008% | 1.69% | 2.39% | -2.71% | -2.5% |
| O=C(c1ccccn1)N1CCC2(CNc3ccccc3[S+](=O)([O-])N2)C1 (stereo not given) | -2.02% | -5.29% | -2.59% | -6.57% | -7.33% |
| O=C(CCc1nnc2n(CCc3ccccc3)c(=O)c3ccccc3n12)NCCC1=CCCCC1 | -6.47% | 7.13% | -0.416% | -8.65% | -5.16% |
| O=S(=O)(NCCn1c(-c2ccc(F)cc2)nc2ccccc21)c1cc(F)ccc1F | -0.919% | 0.396% | 1.42% | -8.99% | 5.48% |
| O=C1CCN(Cc2ccncc2)CCCC(C(=O)N2CCCC2)CCN1 (stereo not given) | -0.278% | -3.43% | 0.686% | -3.4% | 0.843% |
| COc1cccc(CNc2nc3c(-c4cccc(F)c4)nnn3c3ccccc23)c1 | -1.83% | -3.41% | -8.66% | -17% | -10.2% |
| Cc1ccc(COC(=O)N2CC[C@@H](CNc3ncccn3)[C@@H](F)C2)cc1 | -3.71% | -9.34% | -3.08% | -18% | -14.8% |
| CCCn1c(=O)c2ccc(C(=O)NC(C)CC)cc2n2c(SCC(=O)Nc3ccc(CC)cc3)nnc12 (stereo not given) | 4.1% | 0% | 7.25% | -4.69% | 4.99% |
| CCOC(=O)C1(CCOc2ccccc2)CCN(Cc2ccc(O)c(Cl)c2)CC1 | -6.46% | -10.2% | -20.3% | -18.3% | -6.67% |
| CCCn1nc(CNC(=O)Cc2ccc(F)cc2)c2ccccc21 | -0.692% | 0.465% | -6.44% | -4.24% | -0.31% |
| COC[C@@H]1CN(C(=O)c2cc(OC)cc(OC)c2)C[C@H]1c1ccncc1 | -0.826% | 3.54% | 1.71% | -1.97% | -8.75% |
| COCc1cn2c(=O)n(C)cc(-c3ccnc(OC)c3)c2n1 | -9.57% | 3.34% | -0.817% | -4.82% | 11.2% |
| NC(=O)OCC(COC(N)=O)c1ccccc1 | 2.66% | 7.69% | 4.43% | -4.55% | 7% |
| CCOC(=O)CNC(=O)C1(C)Cn2c(ccc2-c2ccco2)C(=O)N1Cc1ccc2c(c1)OCO2 (stereo not given) | -6.55% | 0% | 3.13% | 0.583% | -0.904% |
| CCC1c2ccc(C)n2CCN1C(=O)Nc1cc(Cl)ccc1OC (stereo not given) | -9.33% | -1.54% | -7.45% | -12.5% | -10.9% |
| CCCCN1C(=O)c2cc(C(=O)NCCC)nn2CC1(C)C(=O)NC1CCCC1 (stereo not given) | 9.86% | 1.32% | 8.08% | 7.12% | 8.7% |
| O=C1CCC2(CCN(C(=O)c3ccoc3)CC2)CN1CC1CCCO1 (stereo not given) | -1.91% | -5.39% | 0.156% | -6.31% | -0.744% |
| COC(=O)c1ccc([C@@H]2Nc3c(C)cccc3[C@@H]3C=CC[C@@H]32)cc1 | -9.35% | 0% | -5.2% | -10.6% | -9.49% |
| CN(Cc1cnn(-c2ccccc2)c1)Cc1cc2ccccc2[nH]c1=O | -6.45% | 3.04% | -3.48% | -6.6% | -3.08% |
| O=C(CC12CC3CC(CC(C3)C1)C2)Nc1cccc2nc(NCCNCCO)ccc12 | -2.85% | 9.4% | -4.57% | -15.2% | 3.17% |
| COc1cccc(N2C(=O)c3cc4sccc4n3CC2(C)C(=O)NC2CCCCC2C)c1 (stereo not given) | -4.3% | 4.96% | -3.14% | -3.66% | -3.25% |
| CCCc1nc(C(=O)N2CCC3(CCCNC3)C2)cs1 (stereo not given) | -1.69% | -2.58% | 0.407% | 0.557% | -4.24% |
| COc1ccc(C(=O)Cn2nc3n(C(C)C)c(=O)c4ccc(C(=O)NCC(C)C)cc4n3c2=O)cc1 | 3.94% | 3.46% | 7.1% | 2.28% | 5.79% |
| COc1cc(O)c2c(c1)C1=CC(O)C(O)CC1(C)OC2=O (stereo not given) | -1.91% | 0.82% | 4.04% | -12.1% | -6.01% |
